The source of these data is PMC12136788.

The other results are listed elsewhere or left out.

First the molecules themselves.
B1: chr20:32656575:32657945:-|three_prime_utr|ENSG00000285382|control|control|control (ssRNA)
RNA: GGGAGUUCUACAGUCCGACGAUCAACCUCCACCUCCCAGGUUCAAGGGAUUCUUCUGCCUCAGCCUCCUGAGUAACUGGGAUUAGGGGUGCCCACCACCAUGUCUGGCUAAUUUUUAUAUUUUUAGUAGAGACGGGGUUUUGCCAACAGAGGAUUGAGCAUCA
B2: chr7:20410151:20410448:+|3pUTR|ENSG00000105855|msi1|total|mutant (ssRNA)
RNA: GGGAGUUCUACAGUCCGACGAUCACCCGUGUCGUUGCCGCACUUUACUGUAAUAUAUAACUUAUUCCGAUCAGCACCGAAUGCCGAUCCUCUGAAGAGCACUGAUUACACUUUACAGGUACCUGUUAUCCCUACGCUUCCCAGCAACAGAGGAUUGAGCAUCA
B3: chr3:186789481:186789582:+|3pUTR|ENSG00000156976|msi1_unk|total|mutant (ssRNA)
RNA: GGGAGUUCUACAGUCCGACGAUCUUGGGGUGGGUAUAAAAGAUGGGGUCUGUAAAAUCUUUCUUUCUCCGAAAUUUAUUUCCCCGUUCUGCCGAAAUGGUUGUAUCCGAUGUUCUCUAUCAUUUAAUAAUAUACUUGUGGACUCAACAGAGGAUUGAGCAUCA
B4: chr17:35976492:35977731:-|three_prime_utr|ENSG00000275152|control|control|control (ssRNA)
RNA: GGGAGUUCUACAGUCCGACGAUCAUUAUUACAGCAAAGAAUGGUCAACCCCAGCUCCUCAACUCCCAGUGAUGACCAGGCUUUAGUGGAAGCCCUUGUUUACAGAAGAGAGGGGUAAACCUAUGAAAACAGGGGAAGCCUUAUCAACAGAGGAUUGAGCAUCA
B5: chr12:39553410:39553513:-|3pUTR|ENSG00000173208|unk|total|mutant (ssRNA)
RNA: GGGAGUUCUACAGUCCGACGAUCUAAGAUUCAAACUUUGAGUGACAUUCCGUCCAUUUAUGGUUGAUAUCCGGUUUAACCGCCCGAAUUCAAAUUGAUUAUUGCCCGUGGCCAACUAAACCUGUACAAAACCGCUGACAGUUUCAACAGAGGAUUGAGCAUCA
B6: ENSG00000115380:stop:overlap|stop_codon|ENSG00000115380|stop_codon|NA|stop_codon (ssRNA)
RNA: GGGAGUUCUACAGUCCGACGAUCGGACCUUCCGCACAAGCUCUGUGUUAAGAUUGACAAUAAUAGUGGGGCCAUUUUCAUUUUAGUCUUUUCUAAGAGUCAACCACAGGCAUUUAAGUCAGCCAAAGAAUAUUGUUACCUUAACAACAGAGGAUUGAGCAUCA
B7: chr3:50258797:50258898:+|3pUTR|ENSG00000114353|msi1|total|mutant (ssRNA)
RNA: GGGAGUUCUACAGUCCGACGAUCGCACAAGAAGCGUGAGACGCCACCAUUCCUGGAAACCACAGUCCACCUGCUCAUUCUCGCCGCUUUUUAAAAAAAUGAAAGUAAAGGAAAAAAAAAAAACUGCAAAUCCCGAAAACUUUUCAACAGAGGAUUGAGCAUCA
B8: chr6:110609977:110614534:-|three_prime_utr|ENSG00000155111|control|control|control (ssRNA)
RNA: GGGAGUUCUACAGUCCGACGAUCAUUUAAAACUCAUACACAUGGGAGGAAAACCUUAUAUACUGAGCAUUGUGCAGGACUGAUAGCUCUUCUUUAUUGACUUAAAGAAGAUUCUUGUGAAGUUUCCCCAGCACCCCUUCCCUGCAACAGAGGAUUGAGCAUCA
B9: ENSG00000013293:stop:overlap|stop_codon|ENSG00000013293|stop_codon|NA|stop_codon (ssRNA)
RNA: GGGAGUUCUACAGUCCGACGAUCAACACAAACAGAACUCAGAGGCCCUGAUUGCAAAUGAUGAGUUAGAUUACUCUCCAGAGUAGGAGAAACACACAAGUGGGUAGAAAUGGUGAUGACUGAUUUUCAGUAACUUAACCUGUGCAACAGAGGAUUGAGCAUCA
B10: ENSG00000198589:be:win_1301|CDS|ENSG00000198589|bound_else_gene|NA|bound_elsewhere_windowed (ssRNA)
RNA: GGGAGUUCUACAGUCCGACGAUCCAUCUCCUAAGGACAACCCUUCAAUUUUUGUUCAUUCACCACAUGCACUCAUGCUCCAGGAUGUAAAGGCAGUUUUAACACAUUCCAUCCAAAGUGCAAUGCAUUCAAUUGGAGGAGUACCAACAGAGGAUUGAGCAUCA
B11: chr15:65454262:65454415:-|CDS|ENSG00000074603|control|control|control (ssRNA)
RNA: GGGAGUUCUACAGUCCGACGAUCAAUUGACGAUCAGGUGGAAGGACUCCAAUAUCUAGCUUCUCGAUAUGAUUUCAUUGACUUAGAUCGUGUGGGCAUCCACGGCUGGUCCUAUGGAGGAUACCUCUCCCUGAUGGCAUUAAUCAACAGAGGAUUGAGCAUCA
B12: ENSG00000198589:be:win_2501|CDS|ENSG00000198589|bound_else_gene|NA|bound_elsewhere_windowed (ssRNA)
RNA: GGGAGUUCUACAGUCCGACGAUCAGAGCAUGGAGGUUCGCAGAGCCUUUCUUUCUGACAUGAUUAAACUUUUUAAUAACAGUAGAGAAAACAGGAGGAGCUUGCUACAAUGCUCUGUGUGGCAAGAAUGGAUGCUUUCUCUCUCAACAGAGGAUUGAGCAUCA
B13: chr2:182778012:182778113:+|3pUTR|ENSG00000077232|msi1|FALSE|unique (ssRNA)
RNA: GGGAGUUCUACAGUCCGACGAUCUAAAGAUAUAUGUGUUCAUGUAUUUUCUGAAAUUGCUUUCAUAGAAAUUUUCCCACUGAUAGUUGAUUUUUGAGGCAUCUAAUAUUUACAUAUUUGCCUUCUGAACUUUGUUUUGACCUGCAACAGAGGAUUGAGCAUCA
B14: chr12:64421256:64421371:+|CDS|ENSG00000184575|unk|FALSE|unique (ssRNA)
RNA: GGGAGUUCUACAGUCCGACGAUCGUUGACUUCCUGGCCAGAUUUUCUAAGUUGGUAAAUGGAAUGGGACAGUCAUUGAUAGUUAGUUGGAGUAAAUUAAUUAAGAAUGGGGAUAUUAAGAAUGCUCAAGAGGCACUACAAGCUCAACAGAGGAUUGAGCAUCA
B15: chr11:11963431:11963477:-|3pUTR|ENSG00000050165|msi1_unk|total|mutant (ssRNA)
RNA: GGGAGUUCUACAGUCCGACGAUCUUGACACUGUCCCUCUUUGGCAGUUGCAUCCGUAACUUUGAAAGGUAUAUGACUGAGCGCCGCAUACAGGUUAACCUGCAGAAACAGUACUCCGGUAAUUGCCGGGCGAGGAUUAUAAAUCAACAGAGGAUUGAGCAUCA
B16: ENSG00000124766:be:win_3101|3pUTR|ENSG00000124766|bound_else_gene|NA|bound_elsewhere_windowed (ssRNA)
RNA: GGGAGUUCUACAGUCCGACGAUCACACUUUUAAAAAACAAAAAAAGACAAGAGAGAUGAAAACGUUUGAUUAUUUUCUCAGUGUAUUUUUGUAAAAAAUAUAUAAAGGGGGUGUUAAUCGGUGUAAAUCGCUGUUUGGAUUUCCAACAGAGGAUUGAGCAUCA
B17: chr19:6729913:6730384:-|three_prime_utr|ENSG00000125734|control|control|control (ssRNA)
RNA: GGGAGUUCUACAGUCCGACGAUCUACGCCGUUGUCUUGCCUUUUUGGGGGUUGGGGUCUACACGGAGGUUGUGUUUACAAUGUAGAAACCUGUUUUCGCUGUGUGUGGCGGGGGCGCGGGCACAGGGUCCGUGUCUUUGUAUACAACAGAGGAUUGAGCAUCA
B18: chr1:225496770:225496921:-|3pUTR|ENSG00000154380|msi1|FALSE|unique (ssRNA)
RNA: GGGAGUUCUACAGUCCGACGAUCUUUUUUAAUUGCAGACAGUAAUGCAUGUCACACUAAUAUGUAGUGGCCUUUUCAAGGCCUAGUCCCAGGGAAAACAUUUUGUAGAGUAUAGGGGAGUGGGAGGAAGGGGAGGAAUAAUUUCAACAGAGGAUUGAGCAUCA
B19: chrX:135759845:135760351:-|three_prime_utr|ENSG00000269096|control|control|control (ssRNA)
RNA: GGGAGUUCUACAGUCCGACGAUCGUUUUCUACAAUGGAGCAGGAUAUUGCUGAAGUCUCCUGGCAUAUGUUACCGAAUCAAAUAGCCUUCCAGAGGCUAAGAAAUUUCUGUUAGUAAAAGAUGUUCUUUUUCCCAAAGCAUUUCAACAGAGGAUUGAGCAUCA
B20: chr8:6757792:6757893:+|3pUTR|ENSG00000155189|msi1|total|mutant (ssRNA)
RNA: GGGAGUUCUACAGUCCGACGAUCAUUUAUUACAACUUGACAGCUCCAAGCUCUUAUUACUAAAGUAUUCCGUAUCUUGCAGCCCGUUAAUAUUUCAUCUUUUGCUUAUUUCUACAAGUCAGUGAAAUAAAUUGUAUUCCGGAACAACAGAGGAUUGAGCAUCA
B21: chr7:16784014:16784129:+|3pUTR|ENSG00000106537|msi1_unk|total|mutant (ssRNA)
RNA: GGGAGUUCUACAGUCCGACGAUCGAUAAUUUACUUGCCGUCUUUUAUGAUUACACCAAUGUAUUCCCGAAACCGUUAUGUCUCCGGAAAUUGUGGUUUAAUUUUUGACUUUUACAGGUAAGUGCAAAGGAGAAGUGGUUUCAUCAACAGAGGAUUGAGCAUCA
B22: chr8:78602526:78602623:+|3pUTR|ENSG00000171033|msi1_unk|total|mutant (ssRNA)
RNA: GGGAGUUCUACAGUCCGACGAUCUUGUAUGUUGAUGAGUUGAUUAAGUCUAACAGAUUCAUCAAGACUCCAUUGCUUUAUUACCGAGACAUUUGAAAAUAUCCAUUAAUGUGAAUAUCACCUGAAUUCAGUCUGUUUGGUGUCCAACAGAGGAUUGAGCAUCA

The assay concerns the target MSI1 full-length (mouse, UniProt Q61474 1-362). In words: nsRBNS (natural sequence RNA bind-n-seq); RBNS binding buffer (assumed for nsRBNS): 25 mM Tris pH 7.5, 150 mM KCl, 3 mM MgCl2, 0.01% Triton X-100, 500 ug/ml BSA, 20 U/ml SUPERase-In, 4 C; UNK is unkempt and MSI1 is Musashi-1; names of the RNAs are library labels; protein concentration not given here; high values mean tight binding.
Sequence of UniProt Q61474 (Q61474 whole entry): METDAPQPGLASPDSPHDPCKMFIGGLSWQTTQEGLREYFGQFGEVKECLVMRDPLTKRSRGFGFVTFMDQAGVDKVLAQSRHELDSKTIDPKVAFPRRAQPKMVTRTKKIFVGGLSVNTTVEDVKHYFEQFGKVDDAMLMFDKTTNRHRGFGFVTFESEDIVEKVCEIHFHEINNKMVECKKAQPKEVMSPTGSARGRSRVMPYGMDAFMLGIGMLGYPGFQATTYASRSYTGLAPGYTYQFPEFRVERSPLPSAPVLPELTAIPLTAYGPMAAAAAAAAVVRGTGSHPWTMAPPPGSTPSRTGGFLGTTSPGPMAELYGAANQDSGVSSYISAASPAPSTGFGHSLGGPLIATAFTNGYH
As for B1, the binding signal was 0.869 enrichment R.
For B2 the value was 0.529 enrichment R.
On to B3, for which the binding signal is 0.837 enrichment R.
In turn, B4 displayed a binding signal of 0.785 enrichment R.
B5: the binding signal worked out at 0.185 enrichment R.
As for B6, the binding signal amounted to 0.911 enrichment R.
With B7, the binding signal is 0.538 enrichment R.
Molecule B8 yielded a binding signal of 0.218 enrichment R.
With B9, the binding signal came to 18.5 enrichment R.
For B10 the value was 0.284 enrichment R; for B11, 0.725 enrichment R; for B12, 0.315 enrichment R.
Molecule B13 showed a binding signal of 0.605 enrichment R.
Molecule B14 registered a binding signal of 1.28 enrichment R.
For B15 the value was 0.352 enrichment R.
The molecule B16 had a binding signal of 0.328 enrichment R.
For the molecule B17, the binding signal was found to be 0.535 enrichment R.
B18 yielded a binding signal of 11.3 enrichment R.
With B19 the figure was 0.57 enrichment R.
The molecule B20 came in with a binding signal of 1.85 enrichment R.
As for B21, the binding signal was found to be 0.465 enrichment R.
With B22, the binding signal was determined as 0.436 enrichment R.
